Source: publication PMC4336329 (PLoS ONE, 2015)
In all, about 310,000 compounds went through this assay and about 14,000 (4.5%) showed an effect of 50% or more. Effects have a minus sign here. This is one part of the list.

Biological target: human ether-à-go-go-related gene (hERG) potassium channel (human, UniProt Q12809)
Experiment: primary screen, population patch clamp on CHO cells stably expressing hERG
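Further: peak tail current of the secondary pulse compared with the same well before compound.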

human ether-à-go-go-related gene (hERG) potassium channel, sequence (Q12809 whole entry, looked up): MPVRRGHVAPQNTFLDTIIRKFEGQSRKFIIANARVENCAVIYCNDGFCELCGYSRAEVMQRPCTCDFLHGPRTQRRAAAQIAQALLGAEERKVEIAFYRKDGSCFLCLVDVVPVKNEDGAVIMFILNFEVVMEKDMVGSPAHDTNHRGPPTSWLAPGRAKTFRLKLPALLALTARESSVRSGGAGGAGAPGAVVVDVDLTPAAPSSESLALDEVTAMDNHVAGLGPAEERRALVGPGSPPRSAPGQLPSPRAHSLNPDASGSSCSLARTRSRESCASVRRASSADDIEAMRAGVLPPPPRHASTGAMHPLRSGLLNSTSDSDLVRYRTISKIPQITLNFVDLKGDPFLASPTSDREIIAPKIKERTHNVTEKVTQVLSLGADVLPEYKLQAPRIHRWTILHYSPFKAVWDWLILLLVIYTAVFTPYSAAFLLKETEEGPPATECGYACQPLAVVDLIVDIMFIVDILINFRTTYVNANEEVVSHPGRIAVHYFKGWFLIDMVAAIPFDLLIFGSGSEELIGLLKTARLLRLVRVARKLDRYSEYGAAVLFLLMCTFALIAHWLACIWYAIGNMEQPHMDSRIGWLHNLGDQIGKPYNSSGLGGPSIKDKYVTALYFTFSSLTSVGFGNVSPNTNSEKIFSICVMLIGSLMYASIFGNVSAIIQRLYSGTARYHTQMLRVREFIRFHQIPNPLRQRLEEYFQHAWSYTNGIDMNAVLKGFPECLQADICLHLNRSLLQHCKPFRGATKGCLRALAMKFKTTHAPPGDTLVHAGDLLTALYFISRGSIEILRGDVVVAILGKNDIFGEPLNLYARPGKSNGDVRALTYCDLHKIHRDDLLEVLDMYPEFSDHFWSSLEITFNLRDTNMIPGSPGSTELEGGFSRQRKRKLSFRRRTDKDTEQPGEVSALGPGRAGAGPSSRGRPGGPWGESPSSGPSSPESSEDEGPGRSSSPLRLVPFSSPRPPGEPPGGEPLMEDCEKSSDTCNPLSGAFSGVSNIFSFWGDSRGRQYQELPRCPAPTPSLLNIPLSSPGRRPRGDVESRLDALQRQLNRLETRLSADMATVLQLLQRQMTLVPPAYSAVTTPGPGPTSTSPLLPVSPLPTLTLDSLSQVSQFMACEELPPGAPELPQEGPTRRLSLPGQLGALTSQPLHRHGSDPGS

Structure (SMILES) | hERG current change (%, negative = inhibition) at 10uM [%]
Fc1ccccc1N1CCN(c2cnc3ccccc3n2)CC1 | 15.4
COc1ccc(CNC(=O)C(c2ccncc2)N(C(=O)Cc2cccs2)c2cccnc2)cc1 (stereo not shown) | -16.9
O=C1CCCc2nc(N3CCN(Cc4ccccc4)CC3)ncc21 | 9.33
CCC(C(=O)NC(C)(C)C)N(C(=O)Cn1nnc(-c2cccs2)n1)c1cnc2ccccc2c1 (stereo not shown) | -13.3
Cc1nnc(C)n1/N=C/c1ccc(-c2ccccc2Cl)o1 | -11.3
Cc1nn(-c2ccccc2)c2c1C(c1ccc(Cl)cc1)N(c1ccccc1)C(=O)N2 (stereo not shown) | -64.6
Cc1cc(C)cc(N(CC(=O)NC2CCCCC2)C(=O)CNC(=O)c2ccco2)c1 | -7.74
CC1CN(C(=O)N[C@@H](Cc2ccccc2)C(=O)O)CC(C)O1 (stereo partly shown) | 6.54
CC(=O)NC(Cc1cc(C)ccc1C)C(=O)N1CCN(C(=O)c2ccc(Br)cc2)CC1 (stereo not shown) | -71.8
CC(C)NC(=O)C1CCN(C2CCN(C(=O)/C=C/c3cccs3)CC2)CC1 | -35
O=[N+]([O-])c1cnccc1Nc1cccc(F)c1 | -18.1
CC(C)(c1ccccc1)c1ccc(OCCN2CCCC2)cc1 | -36.2
O=C(CSc1nnc(CNC(=O)c2ccc(F)cc2)o1)NCc1ccccc1Cl | -10.3
COc1ccc(C2N(C(C)=O)CCCN2S(=O)(=O)c2ccc(C)cc2)cc1 (stereo not shown) | -49.6
COc1cccc(C2CC(c3cccs3)=NN2C(=O)CCC(=O)O)c1OC (stereo not shown) | 10.9
COc1cc(C(=O)NCC(c2ccccc2)N(C)C)ccc1OCC(=O)N1CCOCC1 (stereo not shown) | 16.2
NN1C(=O)NC(c2ccccc2)(c2ccccc2)C1=O | 5.79
CCN(c1ccccc1)S(=O)(=O)c1ccc(NC(=O)C(C)(C)C)cc1 | -6.32
Cc1nn(-c2cccc(Cl)c2)c2c1C(c1cccnc1)C(C#N)=C(N)O2 (stereo not shown) | 15.4
CCn1c(SCC(=O)c2ccc(O)c(O)c2)nnc1-c1ccc(C)cc1 | -7.4
NS(=O)(=O)c1ccc(NC(=O)C(=O)NCCC(=O)O)cc1 | -12
O=C(CNC(=O)c1cccs1)NCC(=O)OCc1ccc(Cl)cc1Cl | -10.2

Structure (SMILES) | hERG current change (%, negative = inhibition) at 10uM [%]
O=C(CN(c1ccccc1)S(=O)(=O)c1ccccc1)Nc1ccc(F)cc1 | 22.6
O=C(CNC(=O)c1ccccc1)OCCCOC(=O)CNC(=O)c1ccccc1 | 11.8
O=C(CCCc1c[nH]c2ccccc12)NCc1ccc2c(c1)OCO2 | -9.02
COc1ccccc1N1CCN(C(=O)C2CCN(S(=O)(=O)c3ccc(F)cc3)CC2)CC1 | -25.3
Cc1ccc(-n2c(-c3ccco3)nc3nc4ccccc4nc32)cc1 | -39
CCCn1nc(NC(=O)C(C)C)c2cc3cc(OC)ccc3nc21 | -0.225
CCC1CN(C(=O)Nc2cccc(C)c2)c2cc(C)ccc2O1 (stereo not shown) | -5.7
Cn1c(=O)c2c(ncn2CCC(=O)N/N=C/c2cccnc2)n(C)c1=O | 12.3
Cc1c(C(=O)N2CCN(c3ccccn3)CC2)cccc1[N+](=O)[O-] | -10.6
Cc1ccc(NC(=O)C2CC(=O)Nc3ncnn32)c(C)c1 (stereo not shown) | -9.5
COC(=O)Nc1ccc(S(=O)(=O)N2CCCCC2C(=O)O)cc1 (stereo not shown) | 21.5
Cc1cc(Br)ccc1SCC(=O)Nc1cccnc1 | 14.1
Cc1cc(CNC(=O)COc2ccc(C#N)cc2)c2ccccc2n1 | -47.2
N#CC(c1nc2ccccc2nc1N1CCCC1)S(=O)(=O)c1ccccc1 (stereo not shown) | -14.9
COc1ccc(NC2CCCN(C(=O)C3(C)CCCCC3)C2)cc1 (stereo not shown) | 1.58
CCOc1ccc(NC(=O)CSc2nccn2C)cc1 | 7.71
O=C(NCCF)C1Nc2ccc(OC(F)(F)F)cc2C2C=CCC12 (stereo not shown) | -11.8
Cc1ccc(C)c(-c2csc(N/N=C/c3ccco3)n2)c1 | 14.2
OCCCc1cn(CC2CCCCC2)nn1 | 2.61
CC(C)(C)c1cc[n+](-c2[nH]c(=O)sc2/C=N/N=C(\[O-])c2cccnc2)cc1 | 26.2
CC1(C)CC2(CC(c3ccccc3)Oc3cc(O)ccc32)NC(=O)N1 (stereo not shown) | 3.54
Cc1ccc(OCCn2cnc3c(N)ncnc32)cc1 | -14.6

Structure (SMILES) | hERG current change (%, negative = inhibition) at 10uM [%]
Oc1ccc(N2CCN(c3ncnc4sc5c(c34)CCC5)CC2)cc1 | -7.35
COc1ccc2c(c1OC)C(=O)N1c3ccccc3COC21 (stereo not shown) | 6.86
CCCCC(=O)Nc1ccc(C2C(=O)c3ccccc3C2=O)cc1 | 17.1
COc1cccc(/C=N/NC(=O)c2ccc(OCc3cccc(Br)c3)cc2)c1 | -18
Cc1cc(OC(C)C(=O)NCC(O)c2ccccc2)c2c3c(c(=O)oc2c1)CCC3 (stereo not shown) | -9.18
O=C(Cc1ccccc1)Nc1nnc(-c2ccco2)s1 | 11.5
CCCCC(=O)Nc1nnc(CCc2ccccc2)s1 | -3.92
CCCCCCOc1ccc(NC(=O)CC2C(=O)N(CC)C(=S)N2Cc2ccco2)cc1 (stereo not shown) | 1.66
COc1cc(NC(N)=S)c(OC)cc1Cl | 6.66
CCOc1ccc(-c2nc(-c3ccccc3C)no2)cc1 | 11.4
C=CCSc1nnc2nc3c(nn12)c1cc(C)ccc1n3CC=C | -55.1
CCOc1ccc(C(=O)NC(=S)NCc2cccnc2)cc1[N+](=O)[O-] | -2.86
CC1CN(C(=O)C(C)N2C(=O)c3ccccc3C2=O)CC(C)O1 (stereo not shown) | -3.23
CC(C)(C)C(=O)CSc1ncnc2sc3c(c12)CCC3 | 1.77
C#Cc1ccc(CN2CCN(CCCc3ccccc3)C(CCO)C2)cc1 (stereo not shown) | -69.8
CCOc1ccccc1-c1nc2c(s1)CCc1onc(-c3ccc(OC)cc3)c1-2 | 13.3
CC(C)(C)C(=O)[C@H]1[C@H](c2ccccc2)[C@@]2(N=C(c3ccccc3)OC2=O)C2c3ccccc3C=NN21 (stereo partly shown) | 10.2
Cc1cc(C)c2c(N)c(C(=O)c3ccc(Cl)c(Cl)c3)sc2n1 | 12.4
CC1CCC(C(C)C)C(OC(=O)C[n+]2cc(-c3ccc(Cl)cc3)n3c2CCC3)C1.[Cl-] (stereo not shown) | -77.1
Cc1ccc(N2C(N)=C(C#N)C(c3cc(CN4CCOCC4)cs3)C3=C2CC(C)(C)CC3=O)cc1 (stereo not shown) | 21.1
O=C(Oc1c(Br)cc(Br)c2cccnc12)N1CCCCC1 | -18.1
C=CCOc1ccc(/C(O)=C2\C(=O)C(=O)N(CCOC)C2c2cccnc2)cc1 (stereo not shown) | -4.88

Structure (SMILES) | hERG current change (%, negative = inhibition) at 10uM [%]
COc1ccccc1OP(=O)(Nc1cccnc1)Oc1ccccc1OC | 7.37
N#Cc1ccc(COC(=O)CSc2nnc(C3CCCCC3)n2N)cc1 | -43.2
CN(C)S(=O)(=O)c1ccc(C(=O)NCCSc2ccccc2)cc1 | -22.2
COc1ccc(/C=N/Nc2nnc(Cc3ccccc3)c(=O)[nH]2)cc1OC | -61.4
CC(=O)c1c[nH]c(C(=O)NCc2ccccc2Cl)c1 | 5.83
CC1CCCCC1NC(=S)Nc1cccc(S(=O)(=O)N(C)C)c1 (stereo not shown) | 27.6
CCC1Sc2ccc(S(=O)(=O)Nc3ccc(OC)c(OC)c3)cc2NC1=O (stereo not shown) | -6.86
C=CC(C)Sc1nc2c(c(=O)n(C)c(=O)n2C)n1Cc1ccccc1Cl (stereo not shown) | 0.24
O=[N+]([O-])c1cccc2ncccc12 | 11.1
COc1cc(C(=O)Nc2ccc(N3CCCS3(=O)=O)cc2)c([N+](=O)[O-])cc1OC | -10.8
O=C(NCCc1nc(-c2ccc(F)cc2)no1)c1ccc(F)cc1 | -16.3
Cc1ccc(N(C(=O)c2csnn2)C(C(=O)NC2CCCCC2)c2cccnc2)c(C)c1 (stereo not shown) | -5.38
CC1CCCCC12NC(=O)N(CC(=O)NCc1ccc3c(c1)OCO3)C2=O (stereo not shown) | 28.8
C=CCNc1nc(C(=O)OCC)nc2ccccc12 | 11.1
CC1Cc2cc(S(=O)(=O)N3CCC(C(=O)N4CCCCC4)CC3)ccc2N1C(=O)C1CC1 (stereo not shown) | 0.0803
Cc1cccc2c1cnn2C(=O)CCC(=O)NCC(C)c1ccccc1 (stereo not shown) | 14.9
NC(=O)c1nn(-c2ccccc2)nc1NC(=O)CN1CCOCC1 | 1.46
CN(C)/C=C(/C(=O)c1ccc(Cl)cc1)S(=O)(=O)c1ccccc1 | 2.77
CCOC(=O)C1=C(COC(=O)CCc2ccc(CC)cc2)NC(=O)NC1C (stereo not shown) | -8.37
CC(C)(C)OC(=O)N[C@H](/C=C/c1ccccc1)C(=O)OC(C)(C)C | -1.94
O=C(O)CSc1nc(-c2ccccc2)cc(=O)[nH]1 | 8.56
Cc1cc(=O)[nH]c(SCC(=O)N2c3ccccc3CC2C)n1 (stereo not shown) | 8.91
